In all, about 33,000 sequences were measured (“E-score (-0.5 to 0.5)”: median about -0.013, highest 2% from about 0.3 on). This is one part of the list.
What follows are sequences tested against T1, Msn1 (UniProt P22148) (assay: PBM E-score (8-mer binding enrichment) (E-score (-0.5 to 0.5)); higher = stronger / more preferred TF binding; most listed sequences are background and not binding sites). Details: protein concentration: 200 nM; construct: GST-full length.
T1 sequence: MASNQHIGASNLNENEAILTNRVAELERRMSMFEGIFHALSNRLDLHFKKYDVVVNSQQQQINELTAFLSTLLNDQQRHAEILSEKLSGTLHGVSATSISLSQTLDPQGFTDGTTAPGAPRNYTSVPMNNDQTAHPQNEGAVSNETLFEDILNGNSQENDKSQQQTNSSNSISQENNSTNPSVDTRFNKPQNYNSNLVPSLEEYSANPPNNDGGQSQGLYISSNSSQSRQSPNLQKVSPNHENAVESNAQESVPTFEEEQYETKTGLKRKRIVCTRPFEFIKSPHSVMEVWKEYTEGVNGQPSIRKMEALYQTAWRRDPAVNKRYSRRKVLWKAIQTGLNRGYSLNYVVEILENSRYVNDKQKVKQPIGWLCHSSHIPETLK
Method in brief: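 Each ungapped eight-base word and its reverse complement, pooled, received an E-score from the Universal PBM Analysis Suite. Underlying scans, normalised with masliner, recorded fluorescent anti-GST bound to GST-tagged yeast transcription factors. These were applied at about 100-200 nM to universal all-10-mer Agilent arrays double-stranded by primer extension.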

| Sequence | PBM E-score |
| --- | --- |
| ATACTCAT | -0.0656 |
| CGCGTCAG | -0.235 |
| GAGAGGAA | -0.0126 |
| AGAAAGGA | -0.0862 |
| ATTTAACA | 0.0327 |
| ACCAGAAC | 0.0664 |
| AATCAAAT | 0.0333 |
| TGAGATCA | 0.0168 |
| AGCCAACC | -0.0851 |
| AAGACGAC | -0.0563 |
| CTTCTTCC | -0.236 |
| ACCGGGGA | -0.187 |
| ACGTTTGG | 0.1 |
| ACACTGCA | -0.146 |
| CTAAAGCA | 0.106 |
| AAGGCATC | -0.248 |
| GTGTAAAC | -0.119 |
| ATGTATCG | 0.113 |
| ATCAGGTG | -0.0523 |
| CTAGAGTC | -0.244 |
| CGAGTGCG | 0.0204 |
| AGAGACTC | -0.0377 |
| AACGTACT | 0.136 |
| TCCAATAA | 0.182 |
| GGTGTTGA | -0.0373 |

| Sequence | PBM E-score |
| --- | --- |
| AAGGCAAT | -0.00686 |
| AAGCCCAG | -0.224 |
| ATAGCCTG | -0.188 |
| GACTGCAA | -0.16 |
| ACACATCC | 0.0829 |
| ACATAGAC | 0.253 |
| CGCCCCGC | 0.0251 |
| CAACCACA | 0.043 |
| AAAGGATT | -0.134 |
| CTGACAAA | 0.37 |
| ATACTGGA | 0.0328 |
| AGCACCGA | 0.102 |
| AAAAGGCA | 0.117 |
| AAAGTGCT | -0.00618 |
| GCACTCAA | -0.276 |
| ACCCCGGA | -0.0352 |
| TGTACACA | 0.279 |
| CCTGATTC | -0.158 |
| ATTAAGAC | 0.22 |
| ATATCACG | -0.0452 |
| CGCATAAA | 0.0863 |
| CATTAACG | 0.229 |
| AAGAATCA | 0.0806 |
| ACCTGGGC | -0.319 |
| GGTTGAAC | -0.00854 |

| Sequence | PBM E-score |
| --- | --- |
| CATTCAGA | 0.00205 |
| ATCCGCTA | -0.0643 |
| ACACATGT | 0.238 |
| GCGTGTCC | 0.431 |
| CAATCCCG | 0.117 |
| GAAGCACA | 0.0136 |
| ATACCGTG | -0.138 |
| ATTTCTAC | 0.11 |
| ACTACTTG | 0.0825 |
| GCACGTGA | -0.0822 |
| AACTTAAC | 0.211 |
| CCCCGGGG | -0.188 |
| GTATTCAA | 0.0536 |
| ACGGAGCG | 0.0484 |
| AACAGAAT | -0.0275 |
| ATGCAGTA | 0.147 |
| ACTTTAAT | 0.179 |
| ACCGTCCC | -0.114 |
| CTTCTAGA | 0.00137 |
| GAAAGAGA | -0.162 |
| AACTTCCG | 0.0902 |
| ATCCGCTG | -0.02 |
| AAGCTTTG | 0.143 |
| AAGATAGC | -0.0986 |
| TCAGGTCA | -0.111 |

| Sequence | PBM E-score |
| --- | --- |
| ATGTGAGC | -0.073 |
| CGTCCCGC | 0.0266 |
| AACGTTCG | -0.0764 |
| ACTCGTGA | -0.166 |
| ATATTGGC | -0.0271 |
| CACCTGCG | -0.0437 |
| CCGGGTGA | -0.172 |
| CTCGGCAG | 0.0797 |
| AAGTGCGT | -0.119 |
| GCATAAAA | 0.128 |
| AAGCACCT | -0.035 |
| GACATAAA | 0.44 |
| GTCCTGTA | 0.238 |
| GTATCCTA | -0.123 |
| CACAGACG | -0.0835 |
| CACCTCGG | -0.00555 |
| TACATGAA | 0.117 |
| GGAACTCC | -0.101 |
| ACTGGACT | 0.105 |
| AGTAGCTC | -0.124 |
| ATATGCCG | 0.0736 |
| TAGTTTCA | 0.123 |
| GTAAATAA | 0.235 |
| GACAGTCA | -0.15 |
| TACTTGCA | 0.0278 |

| Sequence | PBM E-score |
| --- | --- |
| ACGGTACG | 0.00684 |
| ACTTCTAA | 0.0582 |
| GCCCGTCC | -0.139 |
| GTGGCATA | -0.0828 |
| AGTCGAAA | 0.0085 |
| CCTACATA | -0.0806 |
| GGGTCTGA | -0.19 |
| AGGTTCTG | -0.0681 |
| ACTGAGAG | -0.118 |
| AGCGATTG | -0.0756 |
| GAGAAGAA | -0.0583 |
| TGCCAGAA | 0.00991 |
| GTACCCGA | -0.0726 |
| CTCTCCGA | -0.0802 |
| ACACTGCT | 0.00953 |
| CATTTTGG | 0.115 |
| GATACACA | -0.0615 |
| AGAAATAG | -9e-05 |
| CTAAATCA | -0.0127 |
| CCGCGAAC | 0.0353 |
| AACAGTTA | 0.0308 |
| AGAGGAGC | -0.304 |
| ACGCGCCG | -0.0147 |
| AATCCATG | 0.0111 |
| ATCGTCCG | 0.0902 |

| Sequence | PBM E-score |
| --- | --- |
| AAATTCAT | -0.00598 |
| CACCCGTA | -0.0199 |
| ACTTCATG | 0.103 |
| CACCCTGG | -0.246 |
| ACAGCCAC | -0.115 |
| CCTCATGC | -0.179 |
| CTCCCATA | -0.185 |
| ATCTCTTG | -0.192 |
| GAGGGAAA | -0.2 |
| GCTACGCC | -0.314 |
| AGGGCACT | -0.227 |
| CCGTAACC | 0.0588 |
| ATTGCAGA | 0.152 |
| CCCAGACG | -0.186 |
| CGGTCGTC | -0.237 |
| ACCATGGT | -0.314 |
| CCCCTTTA | -0.222 |
| ACTCTGAG | -0.0558 |
| GAGAACCA | -0.0324 |
| ATACTCTC | -0.137 |
| CCCCCACC | -0.401 |
| CACGGGAA | -0.0568 |
| ATACCCCC | -0.00214 |
| CGGGAAAC | -0.0427 |
| CCTAGGTA | -0.103 |

| Sequence | PBM E-score |
| --- | --- |
| AGGCTCAG | -0.177 |
| GGCGGAAA | -0.0622 |
| CCAAATGG | 0.169 |
| AAGGCGTA | -0.18 |
| CGGTTCGC | 0.00341 |
| GAGGATCA | -0.0851 |
| CGAGCAGC | 0.0174 |
| AATTTAGT | 0.193 |
| AGATGGAA | -0.145 |
| TGCGGCCA | 0.0229 |
| GTGGTTGA | -0.00485 |
| ACGTAGGG | -0.17 |
| GCTTCGAC | -0.0286 |
| ATAGGCTG | 0.0277 |
| AGTCAGGG | -0.204 |
| ACTATGTC | 0.292 |
| AGCCTTGC | -0.155 |
| CAAGTGGA | 0.0396 |
| CCTGAGGA | 0.111 |
| AGCCGGAT | -0.0299 |
| CGTACTAC | 0.0017 |
| AATCTGGT | 0.0578 |

Reference: the supplement of paper PMC3334620
